# This is one part of the list.
# Test system: T1, C. trachomatis L2/434/Bu expressing GFP (CTL2-GFP)
# T1 construct: L2/434/Bu GFP intracellular growth in HeLa cells
# Parameters: species or system HeLa; C. trachomatis total inclusion area by high-content imaging, normalised to DMSO
# Conditions: total inclusion area; 28.5 h, 10 µM; inhibitor
# Outline: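 High-content imaging followed the bulk GFP/resorufin measurement: fixed, Hoechst-stained cells were scored for GFP inclusions and host nuclei per well. Total inclusion area and count served as growth proxies, nuclei number as the viability proxy. MIC calculation matched the bulk assay.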
row,SMILES,% of control remaining
1,Cn1cc(C(=O)NC(Cc2cccs2)c2ccccn2)ccc1=O (stereo not drawn) [CBK285209],77.1834
2,COc1cccc(/C=C2/SC(=S)NC2=O)c1OCCCOc1ccc(C)cc1C [CBK264441],113.648
3,CC(C)Nc1cc(OCc2ccc(-c3ccccc3)cc2)ncn1 [CBK115658],80.1343
4,COC(=O)c1ccc(-c2ccc(F)cc2OC)nc1 [CBK149230],99.0191
5,N#Cc1c(C(F)(F)F)cc(-c2cccs2)nc1SCC(O)CN1CCSCC1 (stereo not drawn) [CBK265947],102.122
6,COC(=O)c1cn([C@H]2CO[C@H]3[C@@H]2OC[C@@H]3NC(=O)Nc2cccc(C(F)(F)F)c2)nn1 [CBK289501],95.2856
7,O=c1[nH]c(=O)c2cc(S(=O)(=O)Nc3ccccc3Cc3ccccc3)ccc2[nH]1 [CBK286377],93.5016
8,O=C(CN1CCCCCC1=O)Nc1nc(-c2ccccc2F)cs1 [CBK281408],66.1719
9,COc1ccc(OC(=O)c2csc(Cc3c(Cl)cccc3Cl)n2)cc1 [CBK083573],84.7528
10,CC(C)NC(=O)[C@@H](C)C1CC[C@@]2(C)CC[C@H](NC(=O)C3CC3)[C@@H](C)[C@@H]2[C@H]1O (stereo partly drawn) [CBK289444],123.548
11,Cc1cccn2c(=O)cc(CN3CCC(c4ccn[nH]4)CC3)nc12 [CBK305951],65.0471
12,Cc1cc(N2CCOC(c3cccs3)C2)ccn1 (stereo not drawn) [CBK304691],77.7496
13,O=C1CCc2cc(S(=O)(=O)Nc3cccc(-c4ccc(F)cc4)c3)ccc2N1 [CBK286371],95.178
14,FC(F)(F)c1nc2ccccc2nc1Sc1ccncc1 [CBK093773],85.8504
15,CCOC(=O)c1sc(-c2ccccc2)nc1O [CBK074298],102.517
16,CN1CCC(N(C)C(=O)NC(c2ccccc2)c2ccccc2)C1 (stereo not drawn) [CBK156000],90.3803
17,CN1C=NC2C1C(=O)N(CCn1c(=O)c3c(ncn3C)n(C)c1=O)C(=O)N2C (stereo not drawn) [CBK268678],104.653
18,Cc1[nH]c(=O)[nH]c(=S)c1C(=O)Nc1ccc2[nH]c(C(F)(F)F)nc2c1 [CBK115494],76.4537
19,CCOC(=O)CCNC(=O)N(CC)Cc1ccccc1 [CBK155228],91.42
20,COC(=O)c1cccc(N(C)S(=O)(=O)c2sc3ccc(Cl)cc3c2C)c1 [CBK160390],72.1568
21,CCc1c(C)nc2c(N3CCOC3=O)cccc2c1SCCC(=O)O [CBK159595T],106.657
22,Cc1cccc2c3c([nH]c12)C1(CCN(CC2CC2)C1)NCC3 (stereo not drawn) [CBK039520],87.2732
23,CSCCN1CCC(Oc2nccnc2OCc2cccnc2)CC1 [CBK083173],91.6207
24,CCOC(=O)c1[nH]c(C)c(/C=C/C2=CCN(C)CC2)c1C [CBK283761],122.488
25,CCCC(=O)Nc1ccc(C(=O)O)cc1NC(=O)CCC [CBK286939],103.155
26,CN1CCN(c2ccccc2NC(=S)NC(=O)c2ccco2)CC1 [CBK267909],83.9687

row,SMILES,% of control remaining
1,CC(=O)c1ccc(CN2CCCN(S(=O)(=O)c3ccc(C(=O)c4ccccc4)cc3)CC2)cc1 [CBK062764],69.2456
2,CN(C(=O)C1CCc2nn(C)c(=O)n2C1)C1Cc2ccccc2C1 (stereo not drawn) [CBK307108],100.055
3,O=C(NCc1nnc(-c2cccs2)o1)C1(c2ccccc2F)CC1 [CBK284637],109.109
4,O=[N+]([O-])c1ccccc1/C=C/CN1CCN(C/C=C/c2ccccc2)CC1 [CBK261864],93.3994
5,O=C(Cc1ccc(-c2ccccc2)cc1)N1CCc2nc3ccccc3c(=O)n2CC1 [CBK286312],94.0007
6,CCn1cc(C(=O)NN)c(=O)c2cc(F)c(N3CCCCCC3)cc21 [CBK307145],83.4236
7,CC(NC(=O)C1(Cn2ccnc2)CC1)c1cccnc1 (stereo not drawn) [CBK306812],55.1999
8,O=C(c1cccs1)N1C[C@@H]2C[C@H](C1)c1c(-c3cncnc3)ccc(=O)n1C2 [CBK289194],96.9992
9,COc1c(C)cc(-c2[nH]c(C)nc2C)cc1C [CBK306941],47.7017
10,COC(=O)Cc1ccc(NC(=S)Nc2ccc(N3CCOCC3)cc2)cc1 [CBK267211],112.889
11,CC1CCN(c2ccc(C(C)NC(=O)Cn3cccn3)cc2)CC1 (stereo not drawn) [CBK281725],103.76
12,O=C(O)CSc1nnc(-c2ccncc2)n1-c1ccc(Cl)cc1 [CBK266686],83.9426
13,O=S(=O)(c1ccc2nc(-c3ccccc3)c(-c3ccc(O)cc3)nc2c1)c1ccc2nc(-c3ccccc3)c(-c3ccc(O)cc3)nc2c1 [CBK261148],70.4511
14,Cc1ccc2c(c1)C(C[C@H]1CN(C(=O)C3CCCC3)CC[C@H]1CC(=O)O)=NCC2 [CBK289163],134.023
15,CC(=C\C(=O)O)/C(=C/c1ccc2ccccc2n1)C(=O)O [CBK278294N],99.0612
16,Cn1cc(CCNC(=O)Nc2ccc(N3CCCC3)nc2)cn1 [CBK305659],76.256
17,OCCN(CCO)c1cncc(-c2cccs2)n1 [CBK065766],122.455
18,c1cncc(-c2nccnc2N2CCN(c3ccncc3)CC2)c1 [CBK036965],142.158
19,Cc1cc(N2C(=O)c3ccc(Oc4ccc5c(c4)C(=O)N(c4cc(C)on4)C5=O)cc3C2=O)no1 [CBK266463],107.587
20,O=C(NCCn1cccn1)N1CCCN(Cc2ccncc2)CC1 [CBK307129],65.0674
21,O=C(Oc1ccccc1)c1cc(S(=O)(=O)N2CCOCC2)c(Cl)cc1Cl [CBK269656],89.3398
22,COc1cccc(-c2ccc(NC(=O)CCC3C(=O)Nc4ccccc43)cc2)c1 (stereo not drawn) [CBK285851],106.54
23,Cc1nc(C2CCCN(C(=O)c3cscn3)C2)c2sccn12 (stereo not drawn) [CBK282236],100.836
24,C/C(=N/OCC(=O)N/N=C/c1sc2ccccc2c1O)c1ccccc1 [CBK262266],88.2599
25,Cc1nnc(SCC(=O)NC(C)(C)C)n1NCc1cccc(Br)c1 [CBK266517],76.4728
26,O=C(CSc1nnc(Nc2ccccc2)n1-c1ccccc1)Nc1ccc2c(c1)COC2=O [CBK268298],138.467

row,SMILES,% of control remaining
1,CCOc1ccc2c(c1)-c1c(ssc1=S)C(C)(C)N2C(=O)CSc1nnc[nH]1 [CBK262680],76.213
2,NC(=O)C1CCN(c2ncnc3c2oc2ccccc23)CC1 [CBK287789],100.014
3,COc1cc(C(=O)N2CCC3(CC2)CC(=O)c2ccc(-c4ccccc4)cc2O3)cc(OC)c1C [CBK169037],117.698
4,Cc1ccc(CN(CCCn2ccnc2)Cc2ccncc2)o1 [CBK283101],70.7994
5,Cc1ccc(C)c(C2CCCN2C(=O)Cn2cc(C(=O)NCc3ccccc3)ccc2=O)c1 (stereo not drawn) [CBK286052],95.8367
6,Cc1ccc(C)c(C(=O)C2=C(O)C(=O)N(CCCN3CCOCC3)C2c2ccncc2)c1 (stereo not drawn) [CBK265492],111.376
7,O=C(c1ccccc1)N1C[C@H](c2ccc(F)cc2)[C@H]2CN(Cc3ccccc3F)CC[C@H]21 [CBK286289],101.057
8,CN1CCN(CCOC(=O)N2CCC(C(F)(F)F)CC2)CC1 [CBK200206],94.256
9,CCc1nc2ccc(C(=O)N3CCN(c4ccccc4)CC3)cn2c1N(C)C(=O)Nc1ccccc1OC [CBK145886],133.522
10,CC1=C(C(=O)Nc2ccc(Cl)cc2Cl)SCCO1 [CBK057784],65.2684
11,OCC1COCCN(c2ncnc3c2CCC3)C1 (stereo not drawn) [CBK304373],73.1424
12,COc1cncc(-c2cc(Nc3cc(OC)c(OC)cc3C)ncn2)c1 [CBK090782],83.6747
13,O=C(COc1ccc2ccccc2c1)Nc1ccc(CN2CCOCC2)cc1 [CBK265754],145.776
14,Cc1ccc2nc(-c3ccncc3)cc(C(=O)N3CCN(c4ncccn4)CC3)c2c1 [CBK267751],94.1741
15,O=C(CSc1nnc(-c2ccc(Cl)cc2Cl)o1)c1cc2ccccc2oc1=O [CBK268698],101.846
16,Cc1cc(Cl)ccc1OCC(O)CN1CCN(Cc2ccc3c(c2)OCO3)CC1 (stereo not drawn) [CBK074383],89.288
17,Cc1ccc(S(=O)(=O)N(C)CC(=O)N(C)Cc2ccccc2)cc1 [CBK264201],103.816
18,O=S(=O)(Nc1nnc(C(F)(F)F)s1)c1ccc(-c2ccccn2)s1 [CBK062016],82.4433
19,Cn1c2c(c3ccccc31)CCOC21CCNCC1 [CBK081142],83.4694
20,O=C1CC(/C=C/c2ccccc2)Cc2[nH]c(=O)c(C(=O)O)cc21 (stereo not drawn) [CBK286933],96.1425
21,CC(C)Nc1cncc(OCc2cccnc2)n1 [CBK115879],103.123
22,Cc1nn(C)c(Cl)c1S(=O)(=O)Nc1cccnc1N1CCOCC1 [CBK062286],97.4008
23,COc1ccc([C@H]2CN(C(=O)c3ccccc3)[C@@H]3CCN(Cc4ccccc4)C[C@H]23)cc1 [CBK285592],85.3679
24,COc1ccc(C(=O)CSc2nnc(C(O)c3ccccc3)n2-c2ccccc2)cc1 (stereo not drawn) [CBK265104],109.219
25,COc1ccc(CNC(=O)N(CCc2ccccc2)CC(C)(C)CN)cc1 [CBK000463C],56.8545
26,CN(C)c1ncccc1CNC(=O)c1ccccn1 [CBK297774],94.9926
